This is an account of results in PubChem BioAssay AID463173 (ICCB-Longwood Screening Facility, Harvard Medical School, 2010).

About 1,700 (3.3%) of roughly 52,000 compounds were called active. Cut-off read from the data, not from the text of the source: active = survival mostly below about 52% (no sharp cut-off); inactive = mostly above about 56%. This is one part of the list.

The test system of this test is Wild type. Put plainly: growth inhibition of S. aureus wild type versus tarO mutant, primary screen, teichoic acid synthesis inhibitors, RN4220, OD600 (AID 463173). Particulars: S. aureus RN4220 wild type/DeltatarO growth, OD600, 18 h, hits give low values, screened at 18.75 µg/mL (by protocol).
In the case of `Cc1ccc(C)c(NC(=S)NC2CC3CCC(C2)N3Cc2ccco2)c1` (centres undefined), the survival was inactive: 104%. The same measure for `CC1CCN(CC(=O)Nc2ccc(F)cc2)CC1`: inactive: 112%; for `CCc1ccc(C2c3c(-c4ccccc4O)n[nH]c3C(=O)N2Cc2cccnc2)cc1` (centres undefined): inactive: 71%.

Turning to `CCC(=O)N1c2ccc(S(=O)(=O)CCC(=O)Nc3ccc(OC)cc3OC)cc2CC1C` (centres undefined), the survival was inactive: 89%. The result for `CCC(=O)N1CCc2cc(CNS(=O)(=O)c3ccc(CC(C)C)cc3)ccc21` reads inactive: 71%.

Turning to `CCN1CCN(c2ncc3c(n2)CCN(Cc2ccccc2C)C3)CC1`, the survival is active: -3%. For the compound `Cc1ccc(CS(=O)(=O)c2ncc(Cl)c(C(=O)Nc3nnc(C(C)C)s3)n2)cc1`, the survival is inactive: 48%. Turning to `COc1ccc(-c2nc(CS(=O)CC(=O)NCCc3ccc(Cl)cc3)c(C)o2)cc1OC` (centres undefined), the survival was inactive: 80%. `CCc1ccc(-n2nc(CO)c(C(=O)NC)n2)cc1`: the survival is inactive: 81%. On to `CC(C)CCNC(=O)C1CCN(C(=O)c2cc3sccc3n2Cc2ccc(Cl)cc2)CC1`, for which the survival is inactive: 86%. As for `CCCS(=O)(=O)N1CC(=O)N(c2ccc(C)c(Cl)c2)C(C)(C(=O)NC2CCCCCC2)C1` (centres undefined), the survival was inactive: 105%. Turning to `COc1cc(CN(C(=O)c2ccccc2F)C2CCS(=O)(=O)C2)cc(OC)c1OC` (centres undefined), the survival was inactive: 83%. In the case of `Cc1cccc(N2CCN(C(=O)Cn3c(-c4cccs4)cc4ccccc43)CC2)c1C`, the survival is inactive: 85%. On to `CC(=O)OC1CC(C)N(C(=O)c2ccccc2)c2ccc(C)cc21` (centres undefined), for which the survival is inactive: 101%. For the compound `Cc1ccc2c(CC(=O)Nc3ccc(S(=O)(=O)N4CCCCC4)cc3)coc2c1C`, the survival was inactive: 98%. Turning to `CN1C(=O)C2(c3ccccc31)N(c1cccc(C(F)(F)F)c1)C(=O)CS2(=O)=O` (centres undefined), the survival was inactive: 54%. As to `CCCCNC(=O)CCCN1C(=O)c2ccccc2Sc2ncccc21`, the survival was inactive: 87%. As to `Oc1c(C(c2ccc(F)cc2)N2CCN(Cc3ccccc3)CC2)sc2nc(-c3ccco3)nn12` (centres undefined), the survival was inactive: 89%. For `Cc1cccc(-c2nc3nc(C)cc(NC(C)c4ccccc4)n3n2)c1` (centres undefined), the survival was inactive: 88%.

Turning to `COc1ccc(C(=O)N(Cc2ccco2)Cc2ccc(C)o2)cc1`, the survival was inactive: 83%. For `COc1ccc(NC(=O)C2CCCN(S(=O)(=O)c3c(C)[nH]c(=O)[nH]c3=O)C2)c(OC)c1` (centres undefined), the survival was inactive: 143%. As for `O=C(NCc1ccc(F)cc1)C(=O)NCC(c1ccc2c(c1)OCO2)N1CCOCC1` (centres undefined), the survival is inactive: 88%. The same measure for `CNC(=O)c1c(NC(=O)/C=C/c2ccccc2)sc2c1CCC2`: inactive: 76%. Take `Cc1ccc2nc(-c3ccc(NC(=O)COc4ccc(Br)cc4Br)cc3)sc2c1`: the survival was inactive: 124%. As for `COCCCNC(=O)c1cnc2sc(N3CCCCC3)nn2c1=O`, the survival is inactive: 68%. As for `COc1cc(NS(=O)(=O)c2ccc(NC(=O)c3ccc(Cl)cc3Cl)cc2)nc(OC)n1`, the survival was inactive: 94%. For `CC(CCc1ccccc1)NC(=O)c1ccco1` (centres undefined), the survival was inactive: 123%. Take `CCOc1ccc(NC(=O)Cn2nnc(-c3nc(-c4ccncc4)no3)c2N)cc1`: the survival was inactive: 79%.

Turning to `Cc1nn2c(C)c(C(=O)NCCc3ccccc3)cnc2c1-c1ccccc1`, the survival was inactive: 55%. Turning to `CCOC(=O)c1ccc(NC(=O)CC(=O)Nc2ccc3nc4n(c(=O)c3c2)CCCCC4)cc1`, the survival is inactive: 91%.

With `Cc1ccccc1NC(=O)/C(C#N)=C/c1ccc(Cl)cc1Cl`, the survival is inactive: 34%. The same measure for `CCc1ccc(NCc2cc3cc4c(cc3n(CC(=O)Nc3ccccc3C)c2=O)OCCO4)cc1`: inactive: 66%; for `CCCOc1ccc(C(=O)Nc2cc3c(cc2N2CCCCC2)n(C)c(=O)n3C)cc1`: inactive: 78%. `COc1ccc(-c2nc3sc(CCNS(=O)(=O)c4ccccc4)c(C)n3n2)cc1`: the survival is inactive: 57%.

For `O=C(NCC1CCN(Cc2ccccc2F)CC1)Nc1ccc(F)c(Cl)c1`, the survival was inactive: 73%. Consider `Cc1ccnc(NC(=O)COc2ccc(Cl)cc2Cl)n1`, for which the survival was inactive: 118%.

Turning to `Cc1ccc2ncc3c(-c4ccc(F)cc4)nn(CC(=O)Nc4ccccc4C)c3c2c1`, the survival was inactive: 78%.

As for `Cc1ccc(S(=O)(=O)Cc2nc(-c3ccc(C(=O)NCCCOC(C)C)cc3)oc2C)cc1`, the survival is inactive: 75%. Regarding `CC(C)c1ccc(N(CC(=O)O)S(=O)(=O)c2ccc3[nH]c(=O)c(=O)[nH]c3c2)cc1`, the survival was inactive: 148%. As to `Cc1ccc2oc(C(=O)Nc3ccc(S(=O)(=O)Nc4nccc(C)n4)cc3)cc(=O)c2c1`, the survival was inactive: 86%. As to `COc1ccc(Br)cc1CNC(=O)CN1C(=O)c2cccnc2Oc2ccc(C)cc21`, the survival is inactive: 94%. On to `CCN(CC)CCCNc1nc(C)nc2c1nnn2Cc1ccccc1`, for which the survival is inactive: 108%. In the case of `CSc1ncc2c(n1)-c1ccccc1N(Cc1ccccc1)S2(=O)=O`, the survival is inactive: 78%.

In the case of `CSc1ccc(CCNC(=O)CCCn2c(=O)c3cccn3c3ccccc32)cc1`, the survival is inactive: 46%. As to `CCOCCCN=C1Sc2nc3cc4c(cc3cc2CN1CC1CCCO1)OCO4` (centres undefined), the survival is inactive: 111%. The result for `CCOc1ccc(C(=O)Nc2cc3c(cc2N2CCCC2)n(C)c(=O)c(=O)n3C)cc1OCC` reads inactive: 88%; that for `O=C1c2[nH]nc(-c3ccc(F)cc3)c2C(c2ccccc2F)N1c1ccccc1` (centres undefined), active: 4%; that for `Cc1ccc2[nH]c3c(=O)n(CC(=O)Nc4ccc(Br)cc4C)ncc3c2c1`, inactive: 57%.

On to `Cn1c(-c2ccccc2)nc2cc(N)ccc21`, for which the survival was inactive: 105%.

With `Fc1ccc(Nc2nc3ccccc3n3cnnc23)c(F)c1`, the survival is inactive: 83%.

Regarding `COC(=O)CCC/C=C1/SCC(NC(=O)c2ccccc2)/C1=N/O` (centres undefined), the survival is inactive: 91%. For `O=C(c1ccc(F)cc1)n1nc(-c2cccnc2)nc1NCc1ccccc1`, the survival was inactive: 81%.

Consider `COc1ccc(-n2ccnc(NCCc3ccccc3)c2=O)cc1OC`, for which the survival was inactive: 66%.

Turning to `COc1cccc(C(=O)N(Cc2nc(-c3ccc(Cl)cc3)no2)C(C)C)c1OC`, the survival was inactive: 46%.

For the compound `COc1ccc(NC(=O)c2nc(-c3ccc(C)cc3)n3c2CCCCC3)cc1`, the survival was inactive: 62%. Turning to `CCSc1nc2ccccc2c(OCc2ccccc2Cl)c1C(=O)OC`, the survival is inactive: 75%. As to `COc1ccc(Oc2nc3c(c(=O)n(Cc4ccc(Br)cc4)c(=O)n3C)n2C)cc1`, the survival is inactive: 93%.

In the case of `CCOC(=O)C1=NN(c2ccccc2)C(=O)C1`, the survival is inactive: 91%. Consider `Cc1ccc(N(CC(C)C)S(=O)(=O)c2nnc(NC(=O)C(C)C)s2)cc1`, for which the survival is inactive: 84%. With `COc1ccccc1CNC(=O)COCc1cc(-c2cccs2)on1`, the survival was inactive: 69%. Turning to `CC(C)(C)c1ccc(C(=O)Nc2c(C(=O)c3ccc(F)cc3)oc3ccccc23)cc1`, the survival was inactive: 73%.

Consider `Cc1nc2nc(CNC(=O)c3cccc(F)c3)nn2c(C)c1CCC(=O)Nc1cccc(Cl)c1`, for which the survival is inactive: 150%. The result for `Cc1nn(C(C)C(=O)Nc2ccccc2C(F)(F)F)c(=O)c2c1sc1ccccc12` (centres undefined) reads inactive: 106%; that for `COc1ccc(Cl)cc1NC(=O)c1cnc2sc(N3CCOCC3)nn2c1=O`, inactive: 74%.

`Cc1ccc(CNC(=O)c2cnc3c(-c4ccc(F)cc4)c(C)nn3c2C)o1`: the survival is inactive: 78%. In the case of `Cc1ccc2oc(-c3ccc(Cl)c(NC(=O)c4cc5ccccc5o4)c3)nc2c1`, the survival was inactive: 66%. The same measure for `CN1CCN(CCNC(=O)c2cnn(-c3ccc(Cl)cc3)c2C2CCN(C(=O)OC(C)(C)C)CC2)CC1`: inactive: 68%; for `CCOC(=O)c1c(NC(=O)c2nc3n(n2)C(C(F)F)CC(C)N3)sc2c1CCCC2` (centres undefined): inactive: 104%.

With `CCN(C(=O)C1CCN(S(=O)(=O)c2c(C)noc2/C=C/c2ccc(C)cc2)CC1)c1cccc(C)c1`, the survival was inactive: 77%. The result for `CCOc1ccc(-c2nonc2NC(=O)c2oc3ccc(CC)cc3c2C)cc1` reads inactive: 128%; that for `COc1ccc(NC(=O)CSc2nc3ccccc3c(=O)n2CCC(=O)NC2CCCCC2)c(OC)c1`, inactive: 84%; that for `CCC(=O)N1CCc2cc(S(=O)(=O)NC(Cc3ccccc3)C(=O)O)ccc21` (centres undefined), inactive: 19%. For the compound `Cc1ccc(S(=O)(=O)Nc2ccc3nc(-c4cccc(Cl)c4)oc3c2)cc1`, the survival was inactive: 29%.

`COc1ccc(CCNC(=O)C(C)n2nc(C)c3sc4ccccc4c3c2=O)c(OC)c1` (centres undefined): the survival is inactive: 73%. For `O=C(CCCCCn1c(=O)c2sccc2n(Cc2ccccc2Cl)c1=O)NCc1ccc2c(c1)OCO2`, the survival was inactive: 93%.

On to `CCc1ccccc1Nc1nn2c(=O)c3ccc(C(=O)NC(C)C)cc3nc2s1`, for which the survival is inactive: 83%. Consider `CCN(CCCNC(=O)c1cc2c(=O)n(C)c3ccccc3c2s1)c1ccccc1`, for which the survival was inactive: 73%. Regarding `COc1ccc(N2C(=O)C(C)C(Cc3ccc(C)cc3)C2=O)cc1` (centres undefined), the survival is inactive: 108%. The result for `COc1cccc(-c2cn3c(n2)sc2cc(C(=O)NC4CCCCC4)ccc23)c1` reads inactive: 85%; that for `O=C(Cn1c(=O)n(Cc2ccco2)c(=O)c2oc3ccccc3c21)Nc1ccccc1`, inactive: 61%. As for `COc1ccc(N2Cc3ccccc3C2=O)cc1`, the survival was inactive: 113%.

With `CC(=O)Nc1ccc2nc(SCc3ccccc3C#N)sc2c1`, the survival is inactive: 110%. For the compound `COc1cc(NC(=O)C2CCN(c3cnccn3)CC2)cc(OC)c1`, the survival was inactive: 83%. For `C#CCn1c(O)c(N=NC(=O)Cn2nnc(-c3ccccc3)n2)c2cc(Br)ccc21`, the survival was inactive: 105%. On to `COc1ccccc1N1CCN(C(=O)C2CCN(S(=O)(=O)c3cn(C)cn3)CC2)CC1`, for which the survival is inactive: 64%. Take `COc1ccccc1NC(=O)CN1C(=O)C(c2ccc(F)cc2)=NC12CCCCC2`: the survival was inactive: 73%. Regarding `CCOCCCNC(=O)c1ccc2c(=O)n(CCc3ccccc3)c(=O)[nH]c2c1`, the survival is inactive: 79%.

On to `CCc1ccc2oc(-c3cc(NC(=O)c4cc(OC)c(OC)c(OC)c4)ccc3O)nc2c1`, for which the survival was inactive: 83%.

Turning to `O=C(O)C(Cc1c[nH]c2ccccc12)Nc1ncnc2c1oc1ccccc12` (centres undefined), the survival was inactive: 101%.
